Data reported in PubChem BioAssay AID488969 (Vanderbilt High Throughput Screening Facility, 2010).
The full ranking holds about 110,000 compounds; the median of “z-score” is about -0.1, and the highest 2% start at about 2. This is one part of the list. Active and inactive are the calls of the source.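 How the source made its calls: active means z-score in the third read window above 3 or below -3; inactive means the rest.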

target: Metabotropic glutamate receptor 8 (Rattus norvegicus) (UniProt P70579); assay: mGluR8 Gi/Go-coupled signaling modulation – cell-based, rat, thallium flux, HTS, primary screen (AID 488969); conditions: HEK293 rat mGluR8, GIRK (G protein-gated inwardly rectifying potassium channel) thallium flux, FluoZin2; at 10 µM; stronger effect = higher value; submaximal glutamate (EC20) added with thallium
Chain of UniProt P70579 (P70579 whole entry, looked up): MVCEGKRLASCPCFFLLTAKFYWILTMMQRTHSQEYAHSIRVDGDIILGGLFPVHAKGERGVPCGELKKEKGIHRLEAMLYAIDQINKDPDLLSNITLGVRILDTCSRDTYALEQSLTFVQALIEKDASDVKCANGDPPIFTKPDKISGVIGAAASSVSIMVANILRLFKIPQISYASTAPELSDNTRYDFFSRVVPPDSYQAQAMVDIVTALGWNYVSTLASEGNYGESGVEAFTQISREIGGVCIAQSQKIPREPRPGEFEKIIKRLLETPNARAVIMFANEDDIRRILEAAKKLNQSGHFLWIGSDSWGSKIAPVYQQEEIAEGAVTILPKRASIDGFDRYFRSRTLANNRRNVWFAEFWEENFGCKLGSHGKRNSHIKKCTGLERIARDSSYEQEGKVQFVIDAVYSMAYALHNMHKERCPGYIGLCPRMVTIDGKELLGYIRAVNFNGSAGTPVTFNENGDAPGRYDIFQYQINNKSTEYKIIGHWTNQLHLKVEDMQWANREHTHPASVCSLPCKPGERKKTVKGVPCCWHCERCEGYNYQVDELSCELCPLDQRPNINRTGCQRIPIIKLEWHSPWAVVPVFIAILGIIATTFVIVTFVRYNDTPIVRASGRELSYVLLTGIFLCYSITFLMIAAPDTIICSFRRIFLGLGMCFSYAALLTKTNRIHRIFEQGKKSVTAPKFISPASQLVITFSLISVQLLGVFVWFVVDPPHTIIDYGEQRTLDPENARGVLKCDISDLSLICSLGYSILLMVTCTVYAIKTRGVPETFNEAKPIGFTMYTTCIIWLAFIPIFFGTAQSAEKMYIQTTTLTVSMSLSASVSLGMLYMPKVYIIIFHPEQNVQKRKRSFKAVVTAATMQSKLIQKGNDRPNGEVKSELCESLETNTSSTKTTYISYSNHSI

Compound | z-score
COc1ccccc1-c1nc2cc3ccccc3cc2nc1-c1ccccc1OC | -0.377
Cc1ccc(S(=O)(=O)Nc2nc3ccccc3nc2NCc2ccc3c(c2)OCO3)cc1C | -0.189
O=C(CNc1cccc2ccccc12)c1ccc([N+](=O)[O-])cc1 | -0.486
CCCOc1ccc(N2C(=O)CC(SC(=NC)Nc3ccc(F)cc3)C2=O)cc1 (stereo not given) | -0.0553
O=[n+]1cc(-c2ccc(F)cc2)n([O-])c2c1CCC2 | -0.477
Cc1ccccc1CNC(=O)Nc1cccs1 | 1.93
COc1cc(C2C(C#N)=C(N)OC3=C2C(=O)CC(C)(C)C3)ccc1OC(=O)N1CCOCC1 (stereo not given) | -0.437
COCc1nc2ccccc2n1Cc1ccccc1 | -0.237
CCOC(=O)c1c(NC(=O)C(=O)N/N=C/c2ccccc2O)sc2c1CCCCC2 | -0.233
O=S(=O)(NCc1ccccc1)c1cccc2cccnc12 | -0.0056
O=C(CNC(=S)N(CCCN1CCOCC1)Cc1cccs1)NCCN1CCOCC1 | 0.0272
CC1CCN(CCCNC(=O)c2ccc3c(=O)n(CCc4ccccc4)c(=O)[nH]c3c2)CC1 | active: 4.09
Fc1ccc(CSc2ncnc3c2oc2ccccc23)cc1 | -0.0202
Cc1[nH]n2c(=O)cc(-c3ccc([N+](=O)[O-])cc3)nc2c1-c1ccccc1 | -1.93
Cc1ccccc1-c1nc(CN2CCC(C(=O)NCc3cccs3)CC2)c(C)o1 | -0.0598
O=C(O)CCC(=O)c1c[nH]c2ccccc12 | 0.136
Cc1cc(NC(=O)CSc2nnc3c(C)cc4cc(C)c(C)cc4n23)no1 | -0.47
CCCN(CC1CC1)S(=O)(=O)c1ccc(S(N)(=O)=O)cc1 | -1.64
O=C(NCCCO)/C(=C\C=C\c1ccccc1)NC(=O)c1ccccc1Cl | -0.138
O=C(NC(Cc1ccccc1)C(=O)O)/C(=C\c1ccco1)NC(=O)c1ccccc1Br (stereo not given) | 0.347
CC(C)CC(NC(=O)C1CCCCC1)C(=O)N1CCN(c2ccccn2)CC1 (stereo not given) | 0.13
O=C(N/N=C\c1ccccc1)c1sccc1-n1cccc1 | -0.297
Cc1ccc(S(=O)(=O)N2c3ccccc3OCC2c2ccccc2)cc1 (stereo not given) | 0.137
Cc1c(NC(=S)NC(=O)C(C)(C)C)cccc1[N+](=O)[O-] | 0.0334

Compound | z-score
NC(=O)Nn1c(CCC(=O)O)ccc1-c1ccc(F)cc1 | -0.128
CCCCN(CC)CCNC(=O)C1c2cc(OC)c(OC)cc2C(=O)N2CCc3ccccc3C12 (stereo not given) | 0.236
CC(C)C(=O)NC(=S)Nc1ccc(S(=O)(=O)NC(C)(C)C)cc1 | -0.00444
CCOC(=O)c1sc2nc3n(c(=O)c2c1C)CCCCC3 | 0.467
Cc1cc(C)c2c3c(sc2n1)C(c1cccc(F)c1)C(C#N)=C(N)O3 (stereo not given) | 0.00825
CN(C)C(CNC(=O)CN1C(=O)NC2(CCc3ccccc32)C1=O)c1ccco1 (stereo not given) | -0.314
CC(C)(C)CC(C)(C)NCC(O)COc1ccc2c(c1)CCC2 (stereo not given) | 1.75
N#C/C(=C\c1ccc(OCC(N)=O)cc1)c1ccccc1 | -0.12
CC(C)C(c1nnnn1Cc1ccc(F)cc1)N1CCN(C(=O)c2ccco2)CC1 (stereo not given) | -0.796
COc1ccccc1NC(=S)NCCC(c1ccccc1)c1ccccc1 | -0.217
Cc1ccc(S(=O)(=O)N2CCC(C(=O)N3CCC(C(=O)NCC4CCCO4)CC3)CC2)cc1 (stereo not given) | 0.137
CC(C)(C)C(=O)Nc1ccc(C(=O)N/N=C/c2ccccc2OC(=O)c2ccccc2)cc1 | -0.336
COC(=O)c1cccc(NC(=S)NCc2ccc(Cl)cc2)c1 | 0.53
O=C(CS(=O)CC(=O)N(c1ccccc1)C(C(=O)NC1CCCCC1)c1ccco1)Nc1ccc(F)cc1 (stereo not given) | -0.245
CCOc1cc2[nH]c(=O)n(CCCC(=O)NCc3ccc(OC)cc3)c(=O)c2cc1OCC | -0.248
O=C(CCN1C(=O)c2ccccc2C1=O)NCc1ccco1 | 1.41
CCCOc1ccc(Cc2c(Cl)nc(SC)nc2NC)cc1 | -0.115
FC(F)(F)c1cnc(N2CCC(=NOCc3ccc(Cl)cc3)CC2)c(Cl)c1 | -0.348
O=C(c1ccc2c(c1)OCO2)N1CCCN(C(=O)c2ccc3c(c2)OCO3)CC1 | 0.178
CCNc1ccc(C(=O)OCC(=O)NCc2ccc(C)cc2)cc1[N+](=O)[O-] | -0.488
Cc1ccnc(NC(=O)c2sc3cc(Cl)ccc3c2Cl)c1 | 0.101
CC1(C)CC(O)C(C)(C)N1O (stereo not given) | -0.038
Cc1nc2cc(NC(=O)N3c4ccccc4CC3C)ccc2o1 (stereo not given) | -0.805
CCC(C)c1ccc(NC(=S)NCc2cccnc2)cc1 (stereo not given) | 1.41

Compound | z-score
CSc1ccc(-c2nc3cnccn3c2Nc2ccc3c(c2)OCO3)cc1 | -1.46
C/C(=N\Nc1nnc(C)c(=O)[nH]1)C(=O)O | -0.127
COc1ccc(OCCOc2ccccc2[N+](=O)[O-])cc1 | -0.217
CC(=O)c1nn(-c2cccc(Br)c2)cc1C(=O)c1ccc2ccccc2c1 | -0.0633
Cc1ccc(C(=O)Nc2nc3c(s2)CCCC3)o1 | -0.106
COc1cccc(CNc2ccc(N3CCC(C)CC3)cc2)c1OC | -0.111
Cc1ccccc1OC(C)c1nc(-c2ccccc2)no1 (stereo not given) | 0.517
O=C(CSc1nnc(-c2ccncc2)n1-c1ccc(F)cc1)NC(=O)NCc1ccco1 | -0.336
Cc1c(C#N)c(=O)oc2ccc3ccccc3c12 | -0.263
O=C(NCc1ccc2c(c1)OCO2)c1ccc(Cl)c(S(=O)(=O)NCc2ccccc2)c1 | -0.164
O=C1C=C(O)CC(c2ccco2)C1 (stereo not given) | 0.462
Cc1cc(C)c(Cn2c(=O)n(CCCC(=O)NCc3ccco3)c(=O)c3sccc32)c(C)c1 | -0.113
CC1=C(C(=O)N2CCOCC2)C(c2ccccc2F)C2=C(CC(C)(C)CC2=O)N1 (stereo not given) | 0.296
Cc1ccc(C(=O)Nc2sc3c(c2C(=O)NCc2ccco2)CCCC3)cc1 | -0.108
CC1/C(=C\c2ccc(Cl)cc2)C(=O)C2CC1C2(C)C (stereo not given) | 0.159
O=C(NCc1cccnc1)C1CCN(C(=O)c2ccc(Cl)cc2Cl)CC1 | -0.0203
O=C(Nc1ccccn1)N1CCOCC1 | -0.17
O=C(NC(=Nc1ccccc1)N1CCOCC1)Nc1ccccc1 | 2.94
COc1ccc(S(=O)(=O)N(C)CC(=O)Nc2ccccc2SC)cc1 | 0.866
C=CCn1c(SCC(=O)NC2CCCCC2)nnc1C1CCCCC1 | 0.0781
CCOC(=O)C(=CNc1ccc(NC2=NCC(C)S2)cc1)C(=O)OCC (stereo not given) | -1.23
CCOc1ccccc1Nc1nnc(Cc2ccccc2Cl)c(=O)[nH]1 | active: 12.8
